Among all 310,000 compounds or so, about 2,200 (0.71%) showed an effect of 50% or more. Effects have a minus sign here. This is one part of the list.

Sequence of human ether-à-go-go-related gene (hERG) potassium channel (Q12809 whole entry, looked up): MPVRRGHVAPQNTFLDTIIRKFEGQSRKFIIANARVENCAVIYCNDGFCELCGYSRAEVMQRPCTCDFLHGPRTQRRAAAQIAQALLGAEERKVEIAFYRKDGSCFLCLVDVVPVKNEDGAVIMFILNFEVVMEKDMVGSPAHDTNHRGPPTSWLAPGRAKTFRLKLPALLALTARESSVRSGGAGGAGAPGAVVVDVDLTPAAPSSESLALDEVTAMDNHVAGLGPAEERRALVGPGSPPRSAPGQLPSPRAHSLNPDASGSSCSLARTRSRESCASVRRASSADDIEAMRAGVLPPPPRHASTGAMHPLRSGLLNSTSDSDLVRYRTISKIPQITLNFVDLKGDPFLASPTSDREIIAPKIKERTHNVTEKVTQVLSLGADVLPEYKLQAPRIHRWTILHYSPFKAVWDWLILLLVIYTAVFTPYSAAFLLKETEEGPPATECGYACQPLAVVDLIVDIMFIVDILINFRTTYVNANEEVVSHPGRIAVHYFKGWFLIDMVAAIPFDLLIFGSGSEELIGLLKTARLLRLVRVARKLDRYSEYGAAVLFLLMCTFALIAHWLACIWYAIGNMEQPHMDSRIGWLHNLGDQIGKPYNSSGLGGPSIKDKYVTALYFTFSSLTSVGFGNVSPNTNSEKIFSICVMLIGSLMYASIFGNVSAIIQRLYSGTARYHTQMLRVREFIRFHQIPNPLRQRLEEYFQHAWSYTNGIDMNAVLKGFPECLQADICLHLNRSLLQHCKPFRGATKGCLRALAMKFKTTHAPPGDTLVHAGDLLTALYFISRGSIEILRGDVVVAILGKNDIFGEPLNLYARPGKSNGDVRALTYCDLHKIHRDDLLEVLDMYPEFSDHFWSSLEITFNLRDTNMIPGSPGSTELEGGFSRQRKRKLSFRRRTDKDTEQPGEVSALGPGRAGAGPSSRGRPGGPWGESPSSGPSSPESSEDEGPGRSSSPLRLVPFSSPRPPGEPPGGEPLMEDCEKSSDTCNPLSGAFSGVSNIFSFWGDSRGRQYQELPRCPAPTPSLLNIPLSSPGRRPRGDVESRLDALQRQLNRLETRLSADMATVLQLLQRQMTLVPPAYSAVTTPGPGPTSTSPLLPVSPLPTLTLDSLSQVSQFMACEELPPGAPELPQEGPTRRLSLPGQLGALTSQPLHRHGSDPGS

This assay concerns the target human ether-à-go-go-related gene (hERG) potassium channel (human, UniProt Q12809). Briefly: primary screen, population patch clamp on CHO cells stably expressing hERG.
`CC1CCCCC1NC(=O)COC(=O)C12CC3CC(CC(Cl)(C3)C1)C2` (stereo not shown): the “hERG current change (%, negative = inhibition) at 1uM” value was found to be 8.57%.

For the compound `COc1cc(/C=N/NC(=O)c2ccc(Cn3cc([N+](=O)[O-])cn3)o2)cc(Br)c1O`, the “hERG current change (%, negative = inhibition) at 1uM” value is 4.69%.

Consider `O=C(C1=COCCO1)N(Cc1nnc(-c2ccc(Cl)cc2)o1)C1CC1`, for which the “hERG current change (%, negative = inhibition) at 1uM” value is listed as -3.45%.

Regarding `Cc1nn(CC(=O)N(C)C)c(C)c1S(=O)(=O)N1CCOCC1`, the “hERG current change (%, negative = inhibition) at 1uM” value was 15.9%.

Consider `CCOc1ccccc1CNC(=O)C1CCN(c2nc3ccccc3o2)CC1`, for which the “hERG current change (%, negative = inhibition) at 1uM” value is listed as 9.76%.

As to `Cc1c(CNCCCc2ccccc2)c(C(=O)O)c(C)n1Cc1ccccc1`, the “hERG current change (%, negative = inhibition) at 1uM” value was determined as 3.24%.

For the compound `CCOC(=O)c1csc(NC(=O)CSc2nnnn2-c2ccc3c(c2)OCCO3)n1`, the “hERG current change (%, negative = inhibition) at 1uM” value is reported as 16.9%.

With `Nc1nc(CN2CCN(c3ccccc3F)CC2)nc(Nc2ccccc2)n1`, the “hERG current change (%, negative = inhibition) at 1uM” value was 0.21%.

Regarding `O=C(CSc1nnc(-c2ccccn2)n1Cc1ccco1)c1ccc(-c2ccccc2)cc1`, the “hERG current change (%, negative = inhibition) at 1uM” value is 7.72%.

On to `CC1CCc2c(nc3sc4c(c3c2N)CCCC4)C1` (stereo not shown), for which the “hERG current change (%, negative = inhibition) at 1uM” value worked out at 5.48%.

Turning to `COc1ccc(/C(N)=N/OC(=O)Oc2ccccc2)cc1OC`, the “hERG current change (%, negative = inhibition) at 1uM” value stood at 15.2%.

For the compound `CCC(Oc1ccccc1)C(=O)Nc1ccccc1N1CCCCC1` (stereo not shown), the “hERG current change (%, negative = inhibition) at 1uM” value is recorded as 2.64%.

As to `O=C1NC(c2ccc(Br)cc2)Oc2ccccc21` (stereo not shown), the “hERG current change (%, negative = inhibition) at 1uM” value is 7.71%.

Take `CCc1ccccc1NC(=O)CSc1nnc([C@@H](NC(=O)OC(C)(C)C)C(C)CC)o1` (stereo partly shown): the “hERG current change (%, negative = inhibition) at 1uM” value is reported as -1.67%.

With `O=C1CN(C(=O)c2cccs2)c2ccccc2N1`, the “hERG current change (%, negative = inhibition) at 1uM” value is 11.9%.

Turning to `Cc1c(Cl)cccc1NC(=O)CSc1nnc(C)n1-c1ccccc1`, the “hERG current change (%, negative = inhibition) at 1uM” value is 11.8%.

Consider `Cc1ccc(C(=O)COC(=O)c2cnccn2)cc1`, for which the “hERG current change (%, negative = inhibition) at 1uM” value came out at 8.22%.

Turning to `O=C(c1ccc(Cl)cc1)[C@@H]1[C@@H]2C(=O)N(c3ccc(Cl)cc3)C(=O)[C@@H]2C2c3ccccc3C=NN21` (stereo partly shown), the “hERG current change (%, negative = inhibition) at 1uM” value amounted to 9.87%.

Consider `CCc1cccc(NS(=O)(=O)c2ccc(-n3cccn3)cc2)c1`, for which the “hERG current change (%, negative = inhibition) at 1uM” value was 17.7%.

Turning to `CC(=O)Nc1nnc(SCC(=O)N2CCN(Cc3ccccc3)CC2)s1`, the “hERG current change (%, negative = inhibition) at 1uM” value came to 8.8%.

`CN(C(=O)COC(=O)CCCc1c[nH]c2ccccc12)c1c(N)n(Cc2ccccc2)c(=O)[nH]c1=O`: the “hERG current change (%, negative = inhibition) at 1uM” value came out at 8.69%.

With `COc1ccc(-c2cc(C(=O)Nc3ccc(C)cc3)no2)cc1`, the “hERG current change (%, negative = inhibition) at 1uM” value was 5.99%.

Take `CC1CN(S(=O)(=O)c2ccc(-c3nc4ccccc4s3)cc2)CC(C)O1` (stereo not shown): the “hERG current change (%, negative = inhibition) at 1uM” value is 18.6%.

For `Cc1ccc(NC(=O)CN2CCCC2c2cccs2)cc1S(=O)(=O)N1CCCCC1` (stereo not shown), the “hERG current change (%, negative = inhibition) at 1uM” value is 7.37%.

Consider `Cc1ccc(S(=O)(=O)Nc2cc(C(C)C)c(O)cc2C)cc1`, for which the “hERG current change (%, negative = inhibition) at 1uM” value was 2.57%.

With `CCn1c(=O)cc(OCC(=O)Nc2cc(C)ccn2)c2ccccc21`, the “hERG current change (%, negative = inhibition) at 1uM” value was 15.6%.

`COc1ccc(N(CC(=O)N2CCc3ccccc3C2)S(=O)(=O)c2c(C)nn(C)c2C)cc1`: the “hERG current change (%, negative = inhibition) at 1uM” value is -3.69%.

For `O=C(O)CC1(CC(=O)NCc2ccc(F)cc2)CCCCC1`, the “hERG current change (%, negative = inhibition) at 1uM” value turned out to be 19.8%.

On to `CCOc1ccc(-c2nc(N)nc(C)c2-c2ccc(OC)c(OC)c2)c(O)c1`, for which the “hERG current change (%, negative = inhibition) at 1uM” value came out at 11.3%.

Turning to `CCC(=O)Nc1cccc(-c2ccc(N3CCN(C)CC3)nn2)c1`, the “hERG current change (%, negative = inhibition) at 1uM” value is recorded as 6.28%.

For the compound `O=c1[nH]c(=O)n(-c2ccccc2F)c(O)c1/C=C1\C=Nc2ccccc21`, the “hERG current change (%, negative = inhibition) at 1uM” value is recorded as 6.77%.

Consider `Br.Fc1cc(Cl)ccc1NC1=NCCCCC1`, for which the “hERG current change (%, negative = inhibition) at 1uM” value is 10.4%.

As to `Cc1cccc(OCC(=O)Nc2cc(C)c(C)cc2O)c1`, the “hERG current change (%, negative = inhibition) at 1uM” value is reported as 17.1%.

For `CC(=O)c1ccc(COC(=O)Cc2ccc([N+](=O)[O-])cc2)cc1`, the “hERG current change (%, negative = inhibition) at 1uM” value worked out at 12.5%.

For `Cc1noc(C)c1S(=O)(=O)NCCc1ccc(S(N)(=O)=O)cc1`, the “hERG current change (%, negative = inhibition) at 1uM” value was determined as 11.7%.

With `C/C(=N\NC(=O)C(=O)N/N=C(\C)c1cccc(O)c1)c1cccc(O)c1`, the “hERG current change (%, negative = inhibition) at 1uM” value stood at 19.4%.

As to `O=C(N/N=C/c1ccncc1)c1cc([N+](=O)[O-])cc([N+](=O)[O-])c1`, the “hERG current change (%, negative = inhibition) at 1uM” value is listed as -1.58%.

With `CC(C)Oc1ccccc1C1CC(=O)Nc2cc3c(cc21)OCO3` (stereo not shown), the “hERG current change (%, negative = inhibition) at 1uM” value is given as 16.3%.

For `Cc1noc(C)c1C(=O)N1CCN(C(=O)c2sc3cc(Cl)ccc3c2Cl)CC1`, the “hERG current change (%, negative = inhibition) at 1uM” value was -8.74%.

As for `Brc1ccc(-c2csc(-c3ccncc3)n2)cc1`, the “hERG current change (%, negative = inhibition) at 1uM” value is on record as 19.3%.

For the compound `O=C(c1ccccc1[N+](=O)[O-])n1cnc2ccccc21`, the “hERG current change (%, negative = inhibition) at 1uM” value was determined as 9.55%.

For `O=S(=O)(c1ccccc1)N1CCN=C1SCc1c(F)cccc1Cl`, the “hERG current change (%, negative = inhibition) at 1uM” value is 7.5%.

Take `O=S(=O)(c1ccc(Sc2nnc3ccccn23)nc1)N1CCOCC1`: the “hERG current change (%, negative = inhibition) at 1uM” value amounted to 12.6%.

Consider `CCOc1cc(N2CCOCC2)c(OCC)cc1NC(=O)C1=NN(c2cccc(C)c2)C(=O)CC1`, for which the “hERG current change (%, negative = inhibition) at 1uM” value was 6.5%.

For `CN(C)C(=O)C(OC(=O)c1ccc2ccccc2n1)c1ccccc1` (stereo not shown), the “hERG current change (%, negative = inhibition) at 1uM” value was 10.7%.

Consider `CN(C)c1ccc(C(=O)OCC(=O)NC2CCCCC2)cc1`, for which the “hERG current change (%, negative = inhibition) at 1uM” value came to 11.4%.

In the case of `O=C(c1cnn2c(C(F)(F)F)cc(-c3cccs3)nc12)N1CCOCC1`, the “hERG current change (%, negative = inhibition) at 1uM” value stood at 14.2%.

On to `CCN(CC)C(=O)CSc1nc(O)c(Cc2ccccc2)c(=O)n1-c1ccccc1`, for which the “hERG current change (%, negative = inhibition) at 1uM” value was found to be 11.9%.

With `C=CCN1C(=O)c2ccc(C(=O)N3CCN(S(=O)(=O)c4cccc([N+](=O)[O-])c4)CC3)cc2C1=O`, the “hERG current change (%, negative = inhibition) at 1uM” value was -2.72%.

Turning to `COc1cccc(CNC(=O)CN2C(=O)CCSc3ccc(S(=O)(=O)N4CCCC4)cc32)c1`, the “hERG current change (%, negative = inhibition) at 1uM” value was 10.3%.

With `C=CCN1C(=O)S/C(=C\c2ccc(N3CCOCC3)cc2C)C1=O`, the “hERG current change (%, negative = inhibition) at 1uM” value came out at 13.1%.

On to `CCc1nc(N=C(N)N)nc2ccccc12`, for which the “hERG current change (%, negative = inhibition) at 1uM” value is 10.2%.

In the case of `CCOC(=O)CCNC(=O)N1CCCC(C(=O)c2ccccc2SC)C1` (stereo not shown), the “hERG current change (%, negative = inhibition) at 1uM” value is -1.74%.

On to `Cc1ccc(OCCn2c(C3CC(=O)N(Cc4ccccc4)C3)nc3ccccc32)cc1` (stereo not shown), for which the “hERG current change (%, negative = inhibition) at 1uM” value is 7.04%.

Take `CN(Cc1ccccc1)C(=O)c1[nH]cnc1C(=O)NCCCCCNC(=O)OC(C)(C)C`: the “hERG current change (%, negative = inhibition) at 1uM” value is given as 7.54%.

Source of the values: article PMC4336329 (PLoS ONE, 2015).
